Experimental data taken from paper PMC4336329 (PLoS ONE, 2015).
The whole screen tested about 310,000 compounds, of which about 2,200 (0.71%) showed an effect of 50% or more. The effect is printed as a negative number. This is one part of the list.

These compounds were tested against human ether-à-go-go-related gene (hERG) potassium channel (human, UniProt Q12809) (assay: primary screen, population patch clamp on CHO cells stably expressing hERG).
Chain of human ether-à-go-go-related gene (hERG) potassium channel (Q12809 whole entry, looked up): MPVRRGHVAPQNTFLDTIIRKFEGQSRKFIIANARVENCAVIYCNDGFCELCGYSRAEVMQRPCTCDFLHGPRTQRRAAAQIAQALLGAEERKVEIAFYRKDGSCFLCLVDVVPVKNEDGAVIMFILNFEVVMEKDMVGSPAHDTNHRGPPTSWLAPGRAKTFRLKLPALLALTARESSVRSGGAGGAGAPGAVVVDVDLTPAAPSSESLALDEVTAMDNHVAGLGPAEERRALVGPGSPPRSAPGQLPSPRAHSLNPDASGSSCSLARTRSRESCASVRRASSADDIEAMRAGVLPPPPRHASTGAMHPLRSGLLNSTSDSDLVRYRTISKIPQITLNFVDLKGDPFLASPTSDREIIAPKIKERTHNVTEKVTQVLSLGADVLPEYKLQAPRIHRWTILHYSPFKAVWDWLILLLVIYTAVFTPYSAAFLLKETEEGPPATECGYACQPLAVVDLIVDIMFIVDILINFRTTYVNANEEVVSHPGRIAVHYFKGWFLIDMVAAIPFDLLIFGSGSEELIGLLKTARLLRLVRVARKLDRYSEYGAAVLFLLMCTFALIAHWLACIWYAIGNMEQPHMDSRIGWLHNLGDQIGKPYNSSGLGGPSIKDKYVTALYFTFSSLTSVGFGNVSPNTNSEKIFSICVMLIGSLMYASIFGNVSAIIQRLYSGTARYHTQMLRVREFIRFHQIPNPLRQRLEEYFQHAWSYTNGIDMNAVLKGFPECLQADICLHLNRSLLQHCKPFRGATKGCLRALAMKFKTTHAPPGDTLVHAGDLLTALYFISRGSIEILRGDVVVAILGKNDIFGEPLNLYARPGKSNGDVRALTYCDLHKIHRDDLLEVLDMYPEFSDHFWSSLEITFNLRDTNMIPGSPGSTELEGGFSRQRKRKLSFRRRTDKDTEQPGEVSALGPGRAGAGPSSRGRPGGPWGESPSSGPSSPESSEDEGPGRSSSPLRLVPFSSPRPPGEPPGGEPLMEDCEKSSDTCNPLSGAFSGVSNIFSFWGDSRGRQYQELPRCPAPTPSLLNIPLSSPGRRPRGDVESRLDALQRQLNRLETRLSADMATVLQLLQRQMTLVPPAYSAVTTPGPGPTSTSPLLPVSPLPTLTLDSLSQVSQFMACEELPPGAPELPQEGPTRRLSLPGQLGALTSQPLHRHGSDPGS
With `O=C1CC(C2CCCO2)C(=O)N1c1ccccc1` (stereo not shown) the “hERG current change (%, negative = inhibition) at 1uM” value was 13.6%. `NCC1(CC(=O)O)CCCCC1` was tested, and the “hERG current change (%, negative = inhibition) at 1uM” value was 10.8%. `COc1ccc(NC(=O)CC2SC(=Nc3ccccc3)NC2=O)c(OC)c1` (stereo not shown) was tested, and the “hERG current change (%, negative = inhibition) at 1uM” value was 10.2%. With `COc1ccc(C(=O)NNC(=O)Cc2ccc(Cl)cc2)cc1` the “hERG current change (%, negative = inhibition) at 1uM” value was 3.38%. In the case of `CCNC(=O)C(=O)NCC(c1ccc2c(c1)OCO2)N1CCOCC1` (stereo not shown), the “hERG current change (%, negative = inhibition) at 1uM” value is reported as 14.2%. With `COC(=O)c1cc(S(=O)(=O)N2CCCCCC2)c[nH]1` the “hERG current change (%, negative = inhibition) at 1uM” value was 12.4%. `COCCn1c(=S)[nH]c2cc(C(=O)N3CCN(c4cccc(Cl)c4)CC3)ccc2c1=O` was tested, and the “hERG current change (%, negative = inhibition) at 1uM” value was -15.6%. In the case of `C/C(=N\NC(=O)C1CC1c1ccccc1)c1cccs1` (stereo not shown), the “hERG current change (%, negative = inhibition) at 1uM” value is reported as 0.624%. With `Cc1ccc(C(=O)ONC(=O)c2ccc(Cl)cc2)cc1[N+](=O)[O-]` the “hERG current change (%, negative = inhibition) at 1uM” value was 10.3%. With `CCOC(=O)CSc1nnc(NC(=O)c2cccc(S(=O)(=O)N3CCCC3)c2)s1` the “hERG current change (%, negative = inhibition) at 1uM” value was 11.8%. With `CCCc1cc(-c2n[nH]c(=S)n2CC)c2ccccc2n1` the “hERG current change (%, negative = inhibition) at 1uM” value was 7.8%. For `CN(C(=O)Nc1ccccc1)C1CCCCC1`, the “hERG current change (%, negative = inhibition) at 1uM” value was 14.5%. With `COc1ccc(S(=O)(=O)N2CCN(Cc3ccccc3)CC2)cc1` the “hERG current change (%, negative = inhibition) at 1uM” value was 16.1%. In the case of `COc1ccc(-n2nc(C(=O)NCC(=O)NC3CCCCC3)c3ccccc3c2=O)c(OC)c1`, the “hERG current change (%, negative = inhibition) at 1uM” value is reported as 11.2%. In the case of `O=C(OCc1nc2ccsc2c(=O)[nH]1)c1ccco1`, the “hERG current change (%, negative = inhibition) at 1uM” value is reported as 11.9%. `COC(=O)N/N=C/c1ccc(-c2ccc(C)c(Cl)c2)o1` was tested, and the “hERG current change (%, negative = inhibition) at 1uM” value was 13.9%. `Cc1cc(NC(=O)c2cc3ncc(Br)cn3n2)no1` was tested, and the “hERG current change (%, negative = inhibition) at 1uM” value was 15%. With `CN(C)S(=O)(=O)NCc1ccc2c(c1)OCO2` the “hERG current change (%, negative = inhibition) at 1uM” value was 16.3%. `CC(C)(C)n1nc2c(c1NC(=O)Cc1ccccc1)CS(=O)(=O)C2` was tested, and the “hERG current change (%, negative = inhibition) at 1uM” value was 13.6%. In the case of `O=S(=O)(c1ccc(S(=O)(=O)N(Cc2cccs2)CC2CCCO2)cc1)N1CCCCC1` (stereo not shown), the “hERG current change (%, negative = inhibition) at 1uM” value is reported as -1.32%. For `CCCCNC(=O)CSc1ccc(S(=O)(=O)N2CCOCC2)cn1`, the “hERG current change (%, negative = inhibition) at 1uM” value was 0.428%. In the case of `CCOC(=O)c1nn(-c2ccc(F)cc2)c(C)c1C(C)=O`, the “hERG current change (%, negative = inhibition) at 1uM” value is reported as 9.92%. `O=C(O)c1ccc(C(=O)O)c(C(=O)c2ccc(NC(=O)c3ccccc3)cc2)c1` was tested, and the “hERG current change (%, negative = inhibition) at 1uM” value was 13.9%. `COc1ccc(C[C@H]2CN3C(=NC[C@@H]3C)N2CCNC(=O)CCC2CCCCC2)cc1` was tested, and the “hERG current change (%, negative = inhibition) at 1uM” value was -63.7%. For `CCNC(=O)OCCC12CC3CC(CC(C3)C1)C2`, the “hERG current change (%, negative = inhibition) at 1uM” value was 11.6%. For `Cc1ccc(N2CC(C(=O)N/N=C/c3cccc([N+](=O)[O-])c3)CC2=O)cc1` (stereo not shown), the “hERG current change (%, negative = inhibition) at 1uM” value was -6.95%. For `CCN(CC)S(=O)(=O)c1cccc(-c2n[nH]c(=S)n2C(C)COC)c1` (stereo not shown), the “hERG current change (%, negative = inhibition) at 1uM” value was 18.2%. With `COC(=O)c1ccsc1NC(=O)c1ccco1` the “hERG current change (%, negative = inhibition) at 1uM” value was 12.8%. For `N#Cc1nc(Cc2cccc3ccccc23)oc1NCCCn1ccnc1`, the “hERG current change (%, negative = inhibition) at 1uM” value was -17.7%. In the case of `COc1ccc(-c2nn(-c3ccccc3)cc2C(=O)OCC(=O)c2ccc(C)c([N+](=O)[O-])c2)cc1`, the “hERG current change (%, negative = inhibition) at 1uM” value is reported as 8.77%. `O=C(N/N=C/c1cccc(Oc2ccccc2)c1)c1ccc(O)cc1O` was tested, and the “hERG current change (%, negative = inhibition) at 1uM” value was -2.11%. In the case of `CCS(=O)(=O)NCC(c1cccnc1)N1CCN(c2ccccc2)CC1` (stereo not shown), the “hERG current change (%, negative = inhibition) at 1uM” value is reported as 5.01%. With `CCOc1ccc2ccccc2c1/C=N/NC(=O)c1ccc(C)nc1` the “hERG current change (%, negative = inhibition) at 1uM” value was -0.588%. With `O=C(Nc1ccc2ccccc2c1)C(=O)C1C(=O)Nc2ccccc21` (stereo not shown) the “hERG current change (%, negative = inhibition) at 1uM” value was 9.44%. `Cc1ccc(OCc2nnc(SCC(=O)NCc3ccccc3)n2C)cc1` was tested, and the “hERG current change (%, negative = inhibition) at 1uM” value was 2.67%. With `Cc1nc2ccc(NC(=O)Cc3ccc(Br)cc3)cc2s1` the “hERG current change (%, negative = inhibition) at 1uM” value was 13%. For `O=C(Cc1ccccc1)c1c[nH]c(C(=O)NC2CCCC2)c1`, the “hERG current change (%, negative = inhibition) at 1uM” value was 15.7%. In the case of `O=C(NN=C1CCCC1)NC1CCCCC1`, the “hERG current change (%, negative = inhibition) at 1uM” value is reported as 0.295%. For `CCOc1ccc(-c2nnc(SCC(=O)O)n2Cc2ccccc2)cc1`, the “hERG current change (%, negative = inhibition) at 1uM” value was 13.9%. With `Cc1nnc(SCC(=O)N(CC(C)C)C2CCS(=O)(=O)C2)s1` (stereo not shown) the “hERG current change (%, negative = inhibition) at 1uM” value was 8.99%. With `CCCC(=O)Nc1ccc(Cc2ccc(NC(=O)CCC)c(C(=O)O)c2)cc1C(=O)O` the “hERG current change (%, negative = inhibition) at 1uM” value was 9.95%. For `O=C(Nc1ccccc1C(F)(F)F)NC1CCCCCCC1`, the “hERG current change (%, negative = inhibition) at 1uM” value was -12.8%. `Cc1noc(C)c1S(=O)(=O)N1CCC(C(=O)N2CCC(C)CC2)CC1` was tested, and the “hERG current change (%, negative = inhibition) at 1uM” value was 8.64%. In the case of `O=C(O)CNC(=O)/C(=C/c1ccco1)NC(=O)/C=C/c1ccccc1`, the “hERG current change (%, negative = inhibition) at 1uM” value is reported as 12.9%. `OCC(CO)(CO)n1cnnn1` was tested, and the “hERG current change (%, negative = inhibition) at 1uM” value was 11.2%. `C[C@H](NC(=O)[C@H](Cc1ccccc1)n1c(=O)[nH]c2ccccc2c1=O)C(=O)N1CCC[C@H]1C(=O)O` was tested, and the “hERG current change (%, negative = inhibition) at 1uM” value was 8.85%. `C/C(=C\C(=O)Nc1cscc1C)C(=O)O` was tested, and the “hERG current change (%, negative = inhibition) at 1uM” value was 10.3%. With `Cc1ccc(N(CC(=O)N2CCN(c3ccc(F)cc3)CC2)S(=O)(=O)c2c(C)nn(C)c2C)cc1` the “hERG current change (%, negative = inhibition) at 1uM” value was -13.8%. In the case of `O=C(CSc1nc2ccccc2c(=O)n1Cc1ccccc1)Nc1ccc(Br)cc1C(=O)O`, the “hERG current change (%, negative = inhibition) at 1uM” value is reported as 13.5%. For `O=C(CCCN1C(=O)c2cccc3cccc(c23)C1=O)N1CCN(c2ccccc2O)CC1`, the “hERG current change (%, negative = inhibition) at 1uM” value was 0.696%. `Cc1ccc(C)c(C(=O)COC(=O)c2ccc(C)c(S(=O)(=O)N3CCOCC3)c2)c1` was tested, and the “hERG current change (%, negative = inhibition) at 1uM” value was 4.65%. In the case of `CCN(C(=O)c1c(N)cnn1C)c1ccccc1`, the “hERG current change (%, negative = inhibition) at 1uM” value is reported as 1.72%. For `CC1CCN(C(=O)NC(=O)c2ccc(Cl)cc2)CC1`, the “hERG current change (%, negative = inhibition) at 1uM” value was 12.4%. For `Cc1ccc(C)c(NC(=S)NCc2cccs2)c1`, the “hERG current change (%, negative = inhibition) at 1uM” value was -1.6%. For `Cc1cccc(Nc2n[nH]c(C)c2[N+](=O)[O-])c1`, the “hERG current change (%, negative = inhibition) at 1uM” value was 12%. With `COc1ccc(OC)c(/C=C/c2c([N+](=O)[O-])c(=O)n(C)c(=O)n2C)c1` the “hERG current change (%, negative = inhibition) at 1uM” value was 4.85%. For `COc1ccc2ccccc2c1CNC(C)c1ccccc1.O=C(O)C(=O)O` (stereo not shown), the “hERG current change (%, negative = inhibition) at 1uM” value was 8.43%. `Cc1cccc(C)c1NC(=O)CCS(=O)(=O)c1ccc(Br)cc1` was tested, and the “hERG current change (%, negative = inhibition) at 1uM” value was 21.6%.
